Drawing on article PMC9574860, “Chemical Toolkit for PARK7: Potent, Selective, and High-Throughput” (Journal of Medicinal Chemistry, 2022), this text covers Inhibition % for 122 molecules.

Hit rate of the full screen: of about 7,900 compounds, about 400 (5.1%) showed an effect of 50% or more. The list shows a part of the results.

Parkinson's disease protein 7 (PARK7/DJ1), sequence (Q99497 whole entry, looked up, the tested form may be a part): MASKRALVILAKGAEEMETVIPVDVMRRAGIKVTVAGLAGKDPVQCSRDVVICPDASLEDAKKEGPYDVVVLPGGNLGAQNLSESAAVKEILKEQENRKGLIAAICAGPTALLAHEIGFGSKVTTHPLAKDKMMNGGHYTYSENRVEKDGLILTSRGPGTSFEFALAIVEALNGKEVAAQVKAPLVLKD

The target of this experiment is Parkinson's disease protein 7 (PARK7/DJ1) (human, UniProt Q99497). The experiment can be described thus: primary screen, percent inhibition; read as competition with a fluorescent probe by fluorescence polarization; higher = more effect of the substance. Conditions: 100 µM. The method, boiled down:
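Covalent fragments at 100 μM final were incubated 2 h with 0.2 μM PARK7, then 20 nM probe JYQ-107 added for a further 2 h. Fluorescence polarization read at 480/520 nm; relative FP loss versus reference controls gave remaining enzyme activity.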
Turning to `O=C(NCC1(CCO)CCC1)c1cccnc1S`, the Inhibition % is given as 5.07%.
The figure for `N#Cc1ncn(-c2ncc(C(F)(F)F)cc2Cl)n1` is 6.83%; for `Cc1nn(C)c2sc(B3OC(C)(C)C(C)(C)O3)cc12` it is 1.59%; for `N#CC(c1ccccc1)N1CCN(C(=O)CCl)CC1` (centres unmarked) it is 18.3%.
In the case of `O=C(NCc1ccc2c(c1)OCO2)Oc1ccccc1`, the Inhibition % is on record as -3.7%.
In the case of `C=CC(=O)Nc1ccc(C#N)cc1`, the Inhibition % is given as 4.08%.
Turning to `COC(=O)c1ccnc(C#N)c1`, the Inhibition % was found to be 7.37%.
For `CC1CN(c2oc(-c3ccccc3)nc2C#N)CC(C)O1` (centres unmarked), the Inhibition % was 2.19%.
The figure for `C=CC(=O)N(C)C1CCOCC1OC` (centres unmarked) is 6.6%; for `N#CC(=Cc1ccc(F)c(F)c1)C(N)=O` it is 2.39%; for `O=C(CCCl)N1CCc2ccccc2C1` it is 8.5%.
The result for `O=C(CCCl)Nc1cccc2ccccc12` reads 5.12%.
The figure for `C=CC(=O)NCc1ccc2c(c1)C(=O)NCC2` is 29.5%; for `N#Cc1nc(-c2ccc(Cl)cc2)oc1NC1CC1` it is 4.36%; for `CCc1ccc(OC)c(S(=O)(=O)n2cnc(C)c2)c1` it is 5%.
`C=CC(=O)N1CCC(c2cccc(C(F)(F)F)c2)C1` (centres unmarked): the Inhibition % worked out at 10.4%.
The result for `CC1(C)CC(NC2CCOC2=O)C(C)(C)O1` (centres unmarked) reads 2.25%; that for `CC1(C)OB(c2cccc3c2CCOC3)OC1(C)C`, 4.59%; that for `C=CCC(CO)Nc1ccc(C#N)nc1` (centres unmarked), 6.02%.
The result for `N#CC(=Cc1ccc(Cl)cc1)C(N)=O` reads 7.63%; that for `C=CC(=O)Nc1cc(N)ccc1F`, 32.2%; that for `CCNc1nc(S)nc2ccccc12`, 5.07%.
The result for `N#Cc1cc(N2CCNCC2)ccn1` reads 6.56%; that for `OB(O)c1cc(F)ccc1OCC1CCOCC1`, -0.184%; that for `CC(NC(=O)Cn1cnc(C#N)n1)c1ccccc1` (centres unmarked), 1.11%.
On to `CC1CC(N2CCn3c(nnc3C3CC3)C2)C(=O)O1` (centres unmarked), for which the Inhibition % is recorded as 18%.
The figure for `O=C(CCc1ccc(S(=O)(=O)F)cc1)NC1CCCCNC1=O` (centres unmarked) is 7.49%.
The result for `C=CC(=O)N(Cc1cccc(C)n1)Cc1cccc(C)n1.O=C(O)C(F)(F)F` reads 8%.
On to `Cc1ccc(C=CS(=O)(=O)N2CCCC(C(N)=O)C2)cc1` (centres unmarked), for which the Inhibition % came to 8%.
The figure for `N#Cc1ncn(CC(=O)c2ccc(Cl)cc2)n1` is 2.43%.
The figure for `CNc1ccc(C#N)nc1` is 5.44%.
The result for `CC(=O)NCc1ccc(S(=O)(=O)F)cc1` reads 32.8%; that for `Cc1nn(C)c(C)c1C1CCCN1C1CCOC1=O` (centres unmarked), 4.25%.
In the case of `C=CC(=O)NC1CCN(OC)CC1`, the Inhibition % was 11.7%.
For the molecule `Cc1ccc(CCNc2ccc(C#N)nc2)cn1`, the Inhibition % came out at 2.57%.
As to `C=CC(=O)N[C@@H]1C[C@H]1C(C)C` (racemic), the Inhibition % worked out at 6.51%.
On to `N#CSc1ccc(NC(=O)CCl)c(F)c1`, for which the Inhibition % turned out to be 72%.
For the molecule `CC(C)(C)C1CCC2OC2C1` (centres unmarked), the Inhibition % was 7.81%.
Take `C=CC(=O)NC(c1ncc(C)s1)C1CC1` (centres unmarked): the Inhibition % is listed as 8.08%.
The result for `C=CC(=O)N1C[C@H]2CC=CC[C@H]2C1` reads 8.62%.
`N#CN(CC(=O)N1CCOCC1)c1ccccc1`: the Inhibition % stood at 2.66%.
`N#CC(=Cc1ccccc1)C(=O)NCC1CCCO1` (centres unmarked): the Inhibition % came out at 17.8%.
Consider `NS(=O)(=O)c1ccc(Cl)c(NC(=O)CCl)c1`, for which the Inhibition % worked out at 6.59%.
The figure for `C=CC(=O)N1CCC(Cn2cccn2)CC1` is 7.7%; for `O=C(NCc1ccc(Cl)cc1)n1ccnc1` it is -1.68%.
Regarding `COC(=O)c1cc(Cl)ccc1B1OC(C)(C)C(C)(C)O1`, the Inhibition % is on record as 9.49%.
The result for `C=CC(=O)NCC1CC1(C)c1cccs1` (centres unmarked) reads 8.95%; that for `CC(=O)n1ncc2ccc(B3OC(C)(C)C(C)(C)O3)cc21`, 4.96%.
For the molecule `CC(C)(C)C(=O)N1CCCN(c2ccc(C#N)nc2)CC1`, the Inhibition % turned out to be 13.1%.
The result for `CC1C(=O)Nc2ccc(C(=O)CCl)cc21` (centres unmarked) reads 85.9%; that for `Cc1nc2c([nH]1)CCC(C(=O)NC1CC(C)(C)OC1=O)C2` (centres unmarked), 8.26%.
The figure for `OB(O)c1ccc(OCC(F)(F)F)cc1F` is 13%; for `COc1cc(S(=O)(=O)F)c(Cl)cc1C(=O)O` it is 97.8%.
The result for `CC1(C)OB(c2cccc3c2CCNC3=O)OC1(C)C` reads 1.49%.
For `Cc1cccc(C=C(C#N)C(=O)NC(C)C)c1`, the Inhibition % was found to be 7.53%.
The figure for `CC(C)(C)C(=O)NCCNc1ccc(Cl)c(C#N)n1` is 4.61%.
The figure for `O=C(CCl)NCc1cccc(Oc2ccccc2)c1` is 22.5%.
As to `CC1(C)OB(c2ccc3c(c2)COCCN3)OC1(C)C`, the Inhibition % turned out to be 6.15%.
The result for `C=CC(=O)N1CCCC(n2ccc(C(=O)O)n2)C1` (centres unmarked) reads 7.61%.
The result for `C=CC(=O)N1CCC(c2ccccc2C(=O)O)CC1` reads 9.27%.
The figure for `CCN(CCC#N)S(=O)(=O)C=Cc1ccc(C)cc1` is 23.8%; for `C=CC(=O)NC1(C(=O)NCc2cccs2)CCCCC1` it is 3.88%.
As for `C=CC(=O)N1CCOC2(CCSC2)C1` (centres unmarked), the Inhibition % is given as 2.15%.
The result for `C=CC(=O)NC1CCc2cn[nH]c2C1` (centres unmarked) reads 31.9%; that for `COc1ccc(F)cc1C(C)NC(=O)c1cccnc1S` (centres unmarked), 4.7%.
The result for `C=CC(=O)NC(C)c1ccc(C(F)(F)F)nc1Cl` (centres unmarked) reads 3.35%.
`C=CC(=O)N1CCSC2CCC21` (centres unmarked): the Inhibition % was found to be 7.7%.
The result for `Cc1cc(-n2c(C)cc(C(=O)CCl)c2C)no1` reads 7.75%; that for `NS(=O)(=O)c1ccc2c(c1)CCN2C(=O)CCl`, 83.1%.
The result for `Cc1nc(C#N)n(CC(=O)C(C)(C)C)c1C` reads 2.87%; that for `O=S(=O)(c1ccc(Cl)cc1Cl)n1cccn1`, 1.46%.
The figure for `COC(=O)c1cccnc1C#N` is 10.3%.
For `O=C(O)c1cc(S(=O)(=O)F)cs1`, the Inhibition % came to 90%.
Turning to `N#C[C@@H]1C[C@H]2C[C@@H]1[C@@H]1O[C@H]21` (racemic), the Inhibition % came out at 7.91%.
The result for `Fc1ccccc1OCC1CO1` (centres unmarked) reads 54.7%; that for `CN(C(=O)n1ccnc1)C1CCc2ccccc21` (centres unmarked), 23.2%; that for `C=CC(=O)NC(C)c1cc2cccc(F)c2o1` (centres unmarked), 6.94%.
The figure for `N#Cc1ncn(CCOc2ccccc2Cl)n1` is 8.15%.
For `Cc1cc(C)n(S(=O)(=O)c2ccc3oc(=O)ccc3c2)n1`, the Inhibition % came out at 0.108%.
The result for `COc1ccc(NC(=O)CCl)c([N+](=O)[O-])c1` reads 10.4%.
Consider `Cc1ccc(CN2CCCN(C(=O)CCl)CC2)cc1.Cl`, for which the Inhibition % was 13%.
As to `C=CC(=O)N(C)CC(=O)N[C@H]1CCCOC1`, the Inhibition % is on record as 7.23%.
For `O=c1oc(-c2ccccc2)nn1CN1CCOCC1`, the Inhibition % came to 5.66%.
The result for `C=CC(=O)NCC1CCOc2ccccc21` (centres unmarked) reads 7.27%; that for `N#Cc1ncn(CC(=O)NC(c2ccccc2)C2CC2)n1` (centres unmarked), 6.98%.
The result for `COc1cc(C=C(C#N)C(N)=O)ccc1OC(C)C` reads 4.85%; that for `COc1cc(C#N)ccc1OCCCl`, 2.58%; that for `CC1CCN(C(=O)CN2CCSC2=O)c2ccccc21` (centres unmarked), 9.18%.
Take `O=S(=O)(F)c1ccc(C(F)(F)F)nn1`: the Inhibition % came to 8.52%.
The result for `C=CC(=O)N(C)C[C@@H]1C[C@H](F)CN1Cc1nccn1C` reads -2.15%; that for `C=CC(=O)N1CCC[C@@H]2COC[C@@H]21` (racemic), 0.0503%.
The result for `COCC(C)NS(=O)(=O)C=Cc1ccc(Cl)cc1` (centres unmarked) reads 13.7%; that for `C=CC(=O)N1CCN(c2nc(C)cs2)CC1`, 9.68%.
On to `C=CC(=O)N1CCC(n2ncc(C(=O)O)c2C)CC1`, for which the Inhibition % stood at 7.23%.
On to `C=CC(=O)N1CCN(CCC#N)CC1`, for which the Inhibition % stood at 5.55%.
The result for `C=CS(=O)(=O)c1nc2ccccc2s1` reads 6.17%.
The result for `C=CC(=O)NCCN1CCNC(=O)C1` reads 7.56%.
The figure for `C=CC(=O)N1CCCc2cc(Cl)ccc21` is 3.06%; for `O=C(O)c1cccc(NS(=O)(=O)C=Cc2ccccc2)c1` it is -0.0382%; for `O=c1[nH]c(C(Cl)=Cc2cccnc2)nc2ccccc12` it is 34.8%.
Regarding `O=C(c1cccs1)N1CCCCC1CCS(=O)(=O)F` (centres unmarked), the Inhibition % was 84.1%.
For the molecule `OC1=NC(=S)N=C(O)C1=Cc1ccco1`, the Inhibition % worked out at 24.5%.
The figure for `Cl.Nc1cccc2cc(S(=O)(=O)F)ccc12` is 65.6%; for `COc1ccc(C(C)(C)C)cc1S(=O)(=O)n1ccnc1` it is 9.55%.
`COc1cccc(NC(=O)CCl)c1`: the Inhibition % is given as 19.1%.
The result for `CN(C)C=C(C#N)Sc1ccc(F)cc1` reads 36.5%; that for `COc1ccccc1N1CCN(C2CCOC2=O)CC1` (centres unmarked), 9.47%.
The figure for `Cl.O=C(O)C1CCN(C(=O)C=Cc2ccc(Cl)cc2)C1` (centres unmarked) is 15.8%; for `COc1cccc(N2C(=O)CN=C2S)c1` it is 1.97%; for `CS(=O)(=O)OC1CCNCC1.Cl` it is 3.92%.
The result for `Cn1ccc(C(=O)CCl)c1` reads 49%.
Turning to `C=CC(=O)N1CCN(C(=O)N(C)C)CC1`, the Inhibition % is listed as -1.57%.
The figure for `C=CCCOc1cncc(B2OC(C)(C)C(C)(C)O2)c1` is 4.96%.
Regarding `C=CC(=O)N1C2CCC1c1ncccc12` (centres unmarked), the Inhibition % was 9.83%.
As to `N#Cc1ccccc1OS(=O)(=O)c1ccc(Cl)nc1`, the Inhibition % was determined as 9.18%.
The result for `Cc1noc(C)c1C=CC(=O)N1CCc2ccccc21` reads 11.3%; that for `O=C(CCl)NNC(=O)Cc1ccccc1F`, 5.05%; that for `O=C(c1cccnc1S)N1CCC2OCCCC2C1` (centres unmarked), 12.3%.
For `CN1CCN(c2ccc(C#N)nc2)Cc2ccccc21`, the Inhibition % was 6.75%.
Consider `C=CC(=O)Nc1c2c(nn1C(C)C)CCC2`, for which the Inhibition % was 5.86%.
For `C=CC(=O)N1CCC(N(C)C(=O)N(C)C)C1` (centres unmarked), the Inhibition % was determined as 28.7%.
The figure for `C=CCn1c(S)nc2ccsc2c1=O` is 13.1%.
